# From PubChem BioAssay (Tox21)
# The inconclusive results got no clear call from the source; some entries with a clear call stand among them for comparison. Potencies beside an inconclusive call are fits to weak or partial responses and may not hold up. Calls of active or inactive are those of the source. Calls come from the whole dose curve; as a rule, active = well fitted activation curve with a large enough effect in the repeat runs; inconclusive = weak or mixed curves; inactive = no such curve, though single readings can be large or run the other way.
# Test: qHTS assay to identify small molecule agonists of the estrogen related receptor (ERR) signaling pathway (AID 1224820)
# Settings: ERR reporter cell line, luciferase agonist mode; series mostly up to 46.1 µM
# Method in brief: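 ERR reporter cell line (from NTP), 2,000 cells/well, incubated 6 h before compound addition, then 18 h at 37 C. Luminescence measured 30 min after One-Glo reagent at room temperature.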
# Potency is the fitted concentration of half-maximal effect; tags give direction and shape of the fitted curve.
row,SMILES,Potency
1,COc1cc(C(O)C(=O)O)ccc1O (stereo not given),"inconclusive: 10.6 µM [activator, partial curve, poor fit]"
2,COc1ccc(Br)cc1S(=O)(=O)NC(=O)/C=C/c1ccccc1Cc1ccc2ccccc2c1,"inconclusive: 23.7 µM [activator, partial curve, poor fit]"
3,Cn1ncc(S(=O)(=O)Cc2ccccc2)c(Br)c1=O,inactive
4,Cn1cnc2c(NCc3ccccc3)nc(NCCO)nc21,"inconclusive: 11.9 µM [activator, partial curve, poor fit]"
5,COc1cc(/C=C(\C#N)C(=O)c2ccc(O)c(O)c2)cc(I)c1O,"inconclusive: 11.9 µM [activator, partial curve, poor fit]"
6,C[C@H](NC(=O)/C(C#N)=C/c1ccc(O)c(O)c1)c1ccccc1,"inconclusive: 1.33 µM [activator, partial curve, poor fit]"
7,CC(=O)[C@H]1CCC2C3CC=C4C[C@@H](OS(=O)(=O)O)CC[C@]4(C)C3CC[C@@]21C (stereo not given in full),"inconclusive: 33.5 µM [activator, partial curve, poor fit]"
8,C[C@H](Cc1ccccc1)Nc1ncnc2c1ncn2[C@@H]1O[C@H](CO)C(O)[C@H]1O (stereo not given in full),"inconclusive: 16.8 µM [activator, partial curve]"
9,CC(C)N(CCC(=O)c1ccc2ccccc2c1)Cc1ccccc1,inactive
10,CC(=O)O[C@H]1Cc2ccccc2N(C(N)=O)c2ccccc21,"inconclusive: 26.6 µM [activator, partial curve, poor fit]"
